The assay concerns Plasmodium falciparum NF54/iGP1_RE9H ulg8 stage V gametocytes. As to the kind of experiment: gametocyte viability (luciferase signal relative to DMSO control) (% of DMSO control); higher = less gametocytocidal activity, active = 50 or less. To be noted: exposure time: 72 h. In short, it runs like this: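 NF54/iGP1_RE9Hulg8 stage V gametocytes (day 12; ~2.5% gametocytemia, 3% hematocrit) in medium with 0.5% Albumax II were added to 96-well plates of nanolitre-spotted compounds (10 mM DMSO stocks), giving 10 µM or 1 µM, one well each. Plates were incubated 72 h at 37 °C. Then 90 µl was mixed with 10 µl D-luciferin (30 mg/ml) and luminescence was read on an IVIS Lumina II. Viability is relative to the mean of plate DMSO vehicle controls.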

Counter-ions that a name gives are not always drawn. Among all 1,300 compounds or so, about 40 (3%) showed activity. This is one part of the list.

Regarding `Nc1cc(C(Cl)=C(Cl)Cl)c(S(N)(=O)=O)cc1S(N)(=O)=O` [Clorsulon], the gametocyte viability is inactive: 88.1 (concentration: 1 µM) and inactive: 84.9 (concentration: 10 µM).
Consider `O=c1oc2ccccc2c(O)c1Cc1c(O)c2ccccc2oc1=O` [Dicumarol], for which the gametocyte viability is, setting by setting: (concentration: 1 µM) inactive: 87.8; (concentration: 10 µM) inactive: 88.9.
In the case of `Cc1nc(=O)c2cc(CN(C)c3ccc(C(=O)N[C@@H](CCC(=O)O)C(=O)O)s3)ccc2[nH]1` [Raltitrexed], the gametocyte viability was inactive: 94 (concentration: 1 µM) and inactive: 87.5 (concentration: 10 µM).
For `CN1CCN(CCCN2c3ccccc3Sc3ccc(Cl)cc32)CC1` [Prochlorperazine dimaleate] the same measures were inactive: 81.3 and inactive: 78.9.
Take `CN(C)CCC[C@@]1(c2ccc(F)cc2)OCc2cc(C#N)ccc21` [Escitalopram]: the gametocyte viability was inactive: 95.1 (concentration: 1 µM) and inactive: 94.7 (concentration: 10 µM).
With `CCCC(=O)Nc1ncnc2c1ncn2[C@@H]1O[C@@H]2COP(=O)(O)O[C@H]2[C@H]1OC(=O)CCC` [Bucladesine sodium salt], the gametocyte viability is inactive: 90.8 (concentration: 1 µM) and inactive: 90.6 (concentration: 10 µM).
For `CN1CCCC(n2nc(Cc3ccc(Cl)cc3)c3ccccc3c2=O)CC1` (stereo not drawn) [Azelastine HCl] the same measures were inactive: 94.7 and inactive: 78.3.
In the case of `CN1CCCCC1CCN1c2ccccc2Sc2ccc([S+](C)[O-])cc21` (stereo not drawn) [Mesoridazine besylate], the gametocyte viability by setting is: (concentration: 1 µM) inactive: 88.9; (concentration: 10 µM) inactive: 88.7.
For the compound `NC(=O)N/N=C/c1ccc([N+](=O)[O-])o1` [Nitrofural], the gametocyte viability is inactive: 90.1 (concentration: 1 µM) and inactive: 89.1 (concentration: 10 µM).
For `CO[C@@H]1[C@@H](OC(N)=O)[C@@H](O)[C@H](Oc2ccc3c(O)c(NC(=O)c4ccc(O)c(CC=C(C)C)c4)c(=O)oc3c2C)OC1(C)C` [Novobiocin sodium salt] the same measures were inactive: 84.9 and inactive: 79.
Consider `CCN1CCN(C(=O)N[C@@H](C(=O)N[C@@H]2C(=O)N3[C@@H]2SC(C)(C)[C@@H]3C(=O)O)c2ccccc2)C(=O)C1=O` [Piperacillin sodium salt], for which the gametocyte viability by setting is: (concentration: 1 µM) inactive: 93; (concentration: 10 µM) inactive: 90.6.
For `OCCN1CCN(CCCN2c3ccccc3Sc3ccc(Cl)cc32)CC1` [Perphenazine] the same measures were inactive: 90.1 and inactive: 63.9.
As for `CN(C)CCc1c[nH]c2ccc(Cn3cncn3)cc12` [Rizatriptan benzoate], the gametocyte viability (concentration: 1 µM) was inactive: 84.2 and the gametocyte viability (concentration: 10 µM) is inactive: 84.
Turning to `Nc1ccc(S(=O)(=O)c2ccc(N)cc2)cc1` [Dapsone], the gametocyte viability reads like this: (concentration: 1 µM) inactive: 88.7; (concentration: 10 µM) inactive: 85.
As for `OC[C@H]1O[C@@H](Oc2ccc(O)cc2)[C@H](O)[C@@H](O)[C@@H]1O` [Arbutin], the gametocyte viability (concentration: 1 µM) was inactive: 90.2 and the gametocyte viability (concentration: 10 µM) was inactive: 90.4.
`N=C(N)NCC1COC2(CCCCC2)O1` (stereo not drawn) [Guanadrel sulfate]: the gametocyte viability by setting is: (concentration: 1 µM) inactive: 95.2; (concentration: 10 µM) inactive: 100.
Take `CC1(C)OC(=O)NC1=O` [Dimethadione]: the gametocyte viability was inactive: 96 (concentration: 1 µM) and inactive: 92.9 (concentration: 10 µM).
For the compound `COc1ccc(NS(=O)(=O)c2ccc(N)cc2)nn1` [Sulfamethoxypyridazine], the gametocyte viability (concentration: 1 µM) was inactive: 88.6 and the gametocyte viability (concentration: 10 µM) is inactive: 87.5.
For the compound `Nc1ccc(C(=O)NCC(=O)O)cc1` [Aminohippuric acid], the gametocyte viability reads like this: (concentration: 1 µM) inactive: 93.7; (concentration: 10 µM) inactive: 93.3.
On to `CCC[C@H](N[C@@H](C)C(=O)N1[C@H](C(=O)O)C[C@@H]2CCCC[C@@H]21)C(=O)OCC` [Perindopril], for which the gametocyte viability by setting is: (concentration: 1 µM) inactive: 82.4; (concentration: 10 µM) inactive: 80.8.
On to `CC(=O)Oc1cccc2c1C(=O)c1c(OC(C)=O)cc(C(=O)O)cc1C2=O` [Diacerein], for which the gametocyte viability was inactive: 86 (concentration: 1 µM) and inactive: 86.2 (concentration: 10 µM).
As for `C=C1C[C@H]2[C@@H]3C=C(C)C4=CC(=O)CC[C@]4(C)[C@H]3CC[C@]2(C)[C@@]1(OC(C)=O)C(C)=O` [Melengestrol acetate], the gametocyte viability runs as follows: (concentration: 1 µM) inactive: 85.4; (concentration: 10 µM) inactive: 87.2.
On to `CC(=O)N[C@@H](CC(=O)N[C@@H](CCC(=O)O)C(=O)O)C(=O)O` [Spaglumic acid], for which the gametocyte viability is inactive: 83.5 (concentration: 1 µM) and inactive: 87.2 (concentration: 10 µM).
For `Cc1ccc(S(=O)(=O)NC(=O)NN2CC3CCCC3C2)cc1` (stereo not drawn) [Gliclazide] the same measures were inactive: 91.8 and inactive: 88.7.
In the case of `COc1cc2nc(N3CCN(C(=O)c4ccco4)CC3)nc(N)c2cc1OC` [Prazosin hydrochloride], the gametocyte viability (concentration: 1 µM) is inactive: 90.8 and the gametocyte viability (concentration: 10 µM) is active: 42.9.
On to `CCn1cc(C(=O)O)c(=O)c2cnc(N3CCNCC3)nc21` [Pipemidic acid], for which the gametocyte viability by setting is: (concentration: 1 µM) inactive: 98.5; (concentration: 10 µM) inactive: 95.9.
On to `COc1nc(C)nc(Cl)c1NC1=NCCN1` [Moxonidine], for which the gametocyte viability by setting is: (concentration: 1 µM) inactive: 85.5; (concentration: 10 µM) inactive: 85.8.
In the case of `O=C(CCCN1CC=C(n2c(=O)[nH]c3ccccc32)CC1)c1ccc(F)cc1` [Droperidol], the gametocyte viability (concentration: 1 µM) is inactive: 82.8 and the gametocyte viability (concentration: 10 µM) is inactive: 90.
For `CCN(CC)CCNC(=O)c1cc(S(C)(=O)=O)ccc1OC` [Tiapride hydrochloride] the same measures were inactive: 97.2 and inactive: 96.1.
For the compound `C#CCN(C)Cc1ccccc1` [Pargyline hydrochloride], the gametocyte viability runs as follows: (concentration: 1 µM) inactive: 88.2; (concentration: 10 µM) inactive: 88.6.
For `CCn1cc(C(=O)O)c(=O)c2ccc(C)nc21` [Nalidixic acid sodium salt] the same measures were inactive: 85.8 and inactive: 85.7.
As to `COc1ccc2cc(CCC(C)=O)ccc2c1` [Nabumetone], the gametocyte viability (concentration: 1 µM) is inactive: 83.3 and the gametocyte viability (concentration: 10 µM) was inactive: 55.
As to `CCN(Cc1ccncc1)C(=O)C(CO)c1ccccc1` (stereo not drawn) [Tropicamide], the gametocyte viability (concentration: 1 µM) was inactive: 94.4 and the gametocyte viability (concentration: 10 µM) was inactive: 90.
With `CN(C)CCOC1=Cc2ccccc2Sc2ccc(Cl)cc21` [Zotepine], the gametocyte viability is inactive: 91.1 (concentration: 1 µM) and inactive: 86 (concentration: 10 µM).
Take `O=C(NCCNCC(O)COc1ccc(O)cc1)N1CCOCC1` (stereo not drawn) [Xamoterol hemifumarate]: the gametocyte viability (concentration: 1 µM) is inactive: 89.1 and the gametocyte viability (concentration: 10 µM) is inactive: 94.4.
For `Cc1ncc([N+](=O)[O-])n1CCO` [Metronidazole] the same measures were inactive: 96.1 and inactive: 94.3.
For `CCN(CC)CC#CCOC(=O)C(O)(c1ccccc1)C1CCCCC1` (stereo not drawn) [Oxybutynin chloride] the same measures were inactive: 85.3 and inactive: 86.
Take `OC(CCN1CCCCC1)(c1ccccc1)C1CC2C=CC1C2` (stereo not drawn) [Biperiden hydrochloride]: the gametocyte viability was inactive: 94.5 (concentration: 1 µM) and inactive: 92.1 (concentration: 10 µM).
`CN1C2CCCC1CC(NC(=O)c1nn(C)c3ccccc13)C2` (stereo not drawn) [Granisetron]: the gametocyte viability runs as follows: (concentration: 1 µM) inactive: 86.3; (concentration: 10 µM) inactive: 82.3.
For `CC(C)N1CCN(c2ccc(OCC3COC(Cn4cncn4)(c4ccc(Cl)cc4Cl)O3)cc2)CC1` (stereo not drawn) [Terconazole] the same measures were inactive: 80.8 and inactive: 86.3.
For `COc1ccc2[nH]cc(CCNC(C)=O)c2c1` [Melatonin] the same measures were inactive: 80.2 and inactive: 85.4.
Consider `NC[C@H]1O[C@H](O[C@H]2[C@H](O[C@@H]3O[C@H](CO)[C@@H](O)[C@H]3O)[C@@H](O)[C@H](N)C[C@@H]2N)[C@H](N)[C@@H](O)[C@@H]1O` [Ribostamycin sulfate salt], for which the gametocyte viability was inactive: 87 (concentration: 1 µM) and inactive: 85.5 (concentration: 10 µM).
For `Cc1ccc(C(=O)c2cc(O)c(O)c([N+](=O)[O-])c2)cc1` [Tolcapone] the same measures were inactive: 83.2 and inactive: 87.4.
Regarding `COc1ccc(C(=O)NCc2cccnc2)cc1C(=O)NCc1cccnc1` [Picotamide monohydrate], the gametocyte viability by setting is: (concentration: 1 µM) inactive: 80.6; (concentration: 10 µM) inactive: 75.3.
For `Nc1nc(=O)c2nc(CNc3ccc(C(=O)N[C@@H](CCC(=O)O)C(=O)O)cc3)cnc2[nH]1` [Folic acid] the same measures were inactive: 94.9 and inactive: 98.6.
Take `CC(=O)N[C@@H](CC(C)C)C(=O)O` [N-Acetyl-L-leucine]: the gametocyte viability is, setting by setting: (concentration: 1 µM) inactive: 87.4; (concentration: 10 µM) inactive: 95.1.
For `CC[C@H]1OC(=O)[C@H](C)[C@@H](O[C@H]2C[C@@](C)(OC)[C@@H](O)[C@H](C)O2)[C@H](C)[C@@H](O[C@@H]2O[C@H](C)C[C@H](N(C)C)[C@H]2O)[C@](C)(O)C[C@@H](C)/C(=N\OCOCCOC)[C@H](C)[C@@H](O)[C@]1(C)O` [Roxithromycin] the same measures were inactive: 84 and inactive: 80.6.
As to `Nc1nc(F)nc2c1ncn2[C@@H]1O[C@H](CO)[C@@H](O)[C@@H]1O` [Fludarabine], the gametocyte viability (concentration: 1 µM) is inactive: 80.9 and the gametocyte viability (concentration: 10 µM) is inactive: 77.7.
For `O=C1CN2Cc3c(ccc(Cl)c3Cl)N=C2N1` [Anagrelide] the same measures were inactive: 81.9 and inactive: 83.4.
With `Nc1nc(=S)c2ncn([C@@H]3O[C@H](CO)[C@@H](O)[C@H]3O)c2[nH]1` [Thioguanosine], the gametocyte viability (concentration: 1 µM) is inactive: 99.7 and the gametocyte viability (concentration: 10 µM) is inactive: 91.3.
For `CC(C)NCC(O)COc1ccc(COCCOC(C)C)cc1` (stereo not drawn) [Bisoprolol fumarate] the same measures were inactive: 83.7 and inactive: 86.5.
For `CC(C)C(=O)OCC(=O)[C@@]12O[C@H](C3CCCCC3)O[C@@H]1C[C@H]1[C@@H]3CCC4=CC(=O)C=C[C@]4(C)[C@H]3[C@@H](O)C[C@@]12C` [Ciclesonide] the same measures were inactive: 86.7 and inactive: 94.8.
For the compound `O=C(Cn1ccnc1[N+](=O)[O-])NCCO` [Etanidazole], the gametocyte viability runs as follows: (concentration: 1 µM) inactive: 91.4; (concentration: 10 µM) inactive: 95.8.
As for `Clc1ccc(C(Cn2ccnc2)OCc2c(Cl)cccc2Cl)c(Cl)c1` (stereo not drawn) [Isoconazole], the gametocyte viability (concentration: 1 µM) is inactive: 91.2 and the gametocyte viability (concentration: 10 µM) is inactive: 90.9.
For `NC(=O)N1c2ccccc2C=Cc2ccccc21` [Carbamazepine] the same measures were inactive: 92 and inactive: 100.
Regarding `CN(C)CCN(Cc1cccs1)c1ccccn1` [Methapyrilene hydrochloride], the gametocyte viability is inactive: 80.7 (concentration: 1 µM) and inactive: 80.6 (concentration: 10 µM).
`COc1c(O[C@@H]2O[C@H](CO)[C@@H](O)[C@H](O)[C@H]2O)cc2c(c1OC)-c1ccc(SC)c(=O)cc1[C@@H](NC(C)=O)CC2` [Thiocolchicoside]: the gametocyte viability is, setting by setting: (concentration: 1 µM) inactive: 94.6; (concentration: 10 µM) inactive: 95.3.
As for `CCCN[C@H]1CCc2nc(N)sc2C1` [Pramipexole], the gametocyte viability runs as follows: (concentration: 1 µM) inactive: 86; (concentration: 10 µM) inactive: 90.5.
With `CCOC(=O)c1ccc(OC(=O)CCCCCNC(=N)N)cc1` [Gabexate mesilate], the gametocyte viability was inactive: 88.8 (concentration: 1 µM) and inactive: 92 (concentration: 10 µM).

(Values after the supplement of paper PMC12297408.)
